Assay results: patent US12589158B2 (priority 2022, dated 2026)
Several values for one entry are separate records, joined by “and”; a condition that tells them apart may be missing. Equal entries are not always repeated. At least one peptide structure holds a part that was inferred or is arguable (an end, a ring closure or a residue).

Target: T1, mouse GIPR (Mus musculus, UniProt Q0P543)
T1 construct: expressed in transfected cells; host or cells: CHO-K1 (transient)
T1 sequence (Q0P543 19-460): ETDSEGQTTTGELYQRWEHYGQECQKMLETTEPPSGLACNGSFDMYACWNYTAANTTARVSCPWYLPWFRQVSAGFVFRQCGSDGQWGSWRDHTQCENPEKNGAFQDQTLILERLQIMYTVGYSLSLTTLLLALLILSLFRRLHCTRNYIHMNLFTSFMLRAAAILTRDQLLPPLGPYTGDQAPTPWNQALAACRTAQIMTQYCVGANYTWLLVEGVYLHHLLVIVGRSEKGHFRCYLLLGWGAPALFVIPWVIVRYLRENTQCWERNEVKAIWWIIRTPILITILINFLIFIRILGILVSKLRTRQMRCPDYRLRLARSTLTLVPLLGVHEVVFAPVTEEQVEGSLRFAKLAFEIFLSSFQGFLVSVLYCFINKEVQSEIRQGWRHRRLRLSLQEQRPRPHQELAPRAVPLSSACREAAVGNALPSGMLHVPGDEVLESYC
Type: cell-based
Settings: ratio of EC50 value of other species to human EC50 value; smaller = stronger

SMILES: CC[C@H](C)[C@H](NC(=O)[C@H](CC(C)C)NC(=O)[C@H](Cc1c[nH]c2ccccc12)NC(=O)[C@H](CCC(N)=O)NC(=O)[C@@H](NC(=O)[C@H](Cc1ccccc1)NC(=O)[C@H](C)NC(=O)[C@H](CCCCNC(=O)COCCOCCNC(=O)COCCOCCNC(=O)CC[C@H](NC(=O)CCCCCCCCCCCCCCCCCCC(=O)O)C(=O)O)NC(=O)[C@H](CCC(N)=O)NC(=O)[C@H](C)NC(=O)[C@@H](NC(=O)[C@H](CCCCN)NC(=O)[C@H](CC(=O)O)NC(=O)[C@H](CC(C)C)NC(=O)C(C)(C)NC(=O)[C@@H](NC(=O)[C@H](CO)NC(=O)[C@H](Cc1ccc(O)cc1)NC(=O)[C@H](CC(=O)O)NC(=O)[C@H](CO)NC(=O)[C@@H](NC(=O)[C@H](Cc1ccccc1)NC(=O)[C@@H](NC(=O)CNC(=O)[C@H](CCC(=O)O)NC(=O)C(C)(C)NC(=O)[C@@H](N)Cc1ccc(O)cc1)[C@@H](C)O)[C@@H](C)O)[C@@H](C)CC)[C@@H](C)CC)C(C)C)C(=O)N[C@@H](C)C(=O)NCC(=O)NCC(=O)N1CCC[C@H]1C(=O)N[C@@H](CO)C(=O)N[C@@H](CO)C(=O)NCC(=O)N[C@@H](C)C(=O)N1CCC[C@H]1C(=O)N1CCC[C@H]1C(=O)N1CCC[C@H]1C(=O)N[C@@H](CO)C(N)=O [Tirzepatide]
- GIPR EC50 ratio, Mouse: > 220 and 220.87
